From PubChem BioAssay (NCATS)
“And” between values parts separate entries of the source, which are not always exact repeats. Identical values can stand only once. Inconclusive results, whose numbers are uncertain, are shown with a selection of clear calls. Potencies of inconclusive entries are doubtful fits and often do not repeat. The source made the active and inactive calls. The call rests on the fitted dose curve; in most records, active means well fitted cell-killing curve with a large enough effect; inconclusive means small, poorly fitted or top-dose-only effect; inactive means no such curve, though single readings can be large or run the other way.

Experiment: qHTS of pediatric cancer cell lines to identify multiple opportunities for drug repurposing: Primary screen for OHS-50 cells (AID 1347103); further: nearly all actives have a fitted effect of over 40% in size
Conditions: OHS-50 osteosarcoma viability, CellTiter-Glo luminescence, 48 h; series mostly up to 57.3 µM; activity change, negative = cytotoxic: at the top concentration
Description: Drug repurposing or repositioning has been offered as a strategy for drug development in oncology programs. This approach has special potential for childhood cancers and other rare or orphan diseases, where the expected return on new drug development has been a disincentive to pharmaceuticals.
In this project we exploit the poly-pharmacology of drugs to discover new indications via phenotypic screening of a panel of 19 well-characterized cell lines derived from solid tumors seen in children and adolescents. The goal is to identify approved drugs with previously unrecognized anticancer properties that has the potential to reveal new mechanisms and biological processes involved in carcinogenesis or drug resistance. We employed a titration-based paradigm (quantitative high-throughput screening or qHTS), where all compounds were tested at multiple concentrations for their effect on cell viability. Concentration-response curves (CRCs) were derived directly from the primary screen, and both potency and efficacy values were used to identify compounds with robust bioactivity profiles. We screened the NIH Chemical Genomics Center (NCGC) Pharmaceutical Collection (NPC) and Mechanism Interrogation Plate (MIPE) small molecule collections of approved and investigational compounds against these cell lines; and measured metabolically active cells after 48 hours of compound treatment as a proxy for cell viability.
Assay Submitter: Nathalia J. Martinez, National Center for Advancing Translational Sciences, National Institutes of Health, Rockville, MD, USA; email: natalia.martinez@nih.gov
[1] Shen, M et al. Quantitative high-throughput phenotypic screening of pediatric cancer cell lines identifies multiple opportunities for drug repurposing. Oncotarget 2017 Dec 19;9(4):4758-4772. PMID 29435139.
The cells were obtained from University of North Carolina (UNC), Pediatric Preclinical Testing Program (PPT), and Coriell Institute (CI).
qHTS cell viability assay:
Cells were assayed in growth media at a density of 500-1,000 cells/well. Five microliters of cells were dispensed into 1,536-well, white, solid-bottom, TC-treated plates (Greiner Bio One) using a multidrop dispenser and incubated at 37 degrees C, 5% CO2, under a humidified atmosphere for 5 hours. Twenty-three nanoliters of compounds and controls (neutral control DMSO or positive control bortezomib at final concentration of 2.3 µM) were subsequently transferred by Kalypsys pintool. For primary screens, the MIPE collection was tested at 11-point dilutions (final concentrations range from 0.78 nM to 46 µM) and the NPC collection at 8-point dilutions (final concentrations range from 0.59 nM to 46 µM). Compounds tested in follow-up screens were assayed at 11-point dilutions. Cells were incubated for 48 hours, followed by addition of 3 µL of CellTiter-Glo (Promega). After a 15 min incubation at room temperature, samples were analyzed for luminescence intensity using a ViewLux High-throughput CCD imager equipped with clear filters.
Potency means the concentration at half of the fitted maximal effect; tags describe the fitted curve by direction and shape.

Structure (SMILES) | Potency | activity change, negative = cytotoxic
CC[C@H](CO)Nc1nc(NCc2ccccc2)c2ncn(C(C)C)c2n1 | inconclusive: 38.5 µM [cytotoxic, single point] | 
c1ccc2c(Oc3nc(Nc4ccc(N5CCOCC5)cc4)c4ncn(C5CCCCC5)c4n3)cccc2c1 | inconclusive: 21.7 µM [cytotoxic, partial curve] | 
Cc1coc2c1C(=O)C(=O)c1c-2ccc2c1CCCC2(C)C | inconclusive: 2.17 µM [cytotoxic, partial curve] | 
COc1ccc2cccc(CCNC(C)=O)c2c1 |  | inactive: -14.4%
CO[C@H]1C=CO[C@@]2(C)Oc3c(C)c(O)c4c(O)c(c5c(c4c3C2=O)NC2(CCN(CC(C)C)CC2)N=5)=NC(=O)C(C)=CC=C[C@H](C)[C@H](O)[C@@H](C)[C@@H](O)[C@@H](C)[C@H](OC(C)=O)[C@H]1C | inconclusive: 34.3 µM [cytotoxic, partial curve, poor fit] | 
C#C[C@]1(O)CC[C@H]2[C@H]3CCc4cc(OC)ccc4[C@H]3CC[C@@]21C | inconclusive: 21.7 µM [cytotoxic, partial curve] | 
Cc1ccc(O)c(C(CCN(C(C)C)C(C)C)c2ccccc2)c1 (stereo not given) | inconclusive: 12.2 µM [cytotoxic, partial curve, poor fit] | 
COc1cc(NC(=O)c2ccc(-c3ccc(Cl)cc3)o2)cc(OC)c1 |  | inactive: 20.6%
O=C(O)c1nc(=O)[nH]c(=O)[nH]1 |  | inactive: -16.3% [at 19.7 µM]
C[C@]12CC[C@@H]3c4ccc(O)cc4C[C@@H](CCCCCCCCCS(=O)CCCC(F)(F)C(F)(F)F)[C@H]3[C@H]1CC[C@H]2O (stereo not given in full) | inconclusive: 17.2 µM [cytotoxic, partial curve] | 
NS(=O)(=O)c1ccc(Nc2nc(OCC3CCCCC3)c3[nH]cnc3n2)cc1 | inconclusive: 12.2 µM [cytotoxic, partial curve, poor fit] | 
Cc1cc(O)c2c(c1)C(=O)c1cccc(O)c1C2=O |  | inactive: 14.1%
Cc1nc(C(=O)NCC(=O)O)c(O)c2ccc(Oc3ccccc3)cc12 | inconclusive: 4.85 µM [cytotoxic, partial curve, poor fit] | 
COc1ccc(Cc2ccc(NC(N)=O)cc2)cc1-c1cccc(Cl)c1 | inconclusive: 17.2 µM [cytotoxic, partial curve] | 
CN1CCN(Cc2ccc(NC(=O)Nc3ccc(Oc4cc(NC(=O)C5CC5)ncn4)cc3)cc2C(F)(F)F)CC1 | active: 0.485 µM | 
O=C(O)c1ccc(-c2cc3cccnc3c(-c3ccc4nonc4c3)n2)cc1 | active: 27.3 µM | 
O=C(Nc1cccc(Br)c1)c1cccc(S(=O)(=O)N2CCCCCC2)c1 | active: 19.3 µM | 
CCC(=O)N[C@H]1CC[C@H](C(=O)N(C)c2ccc(-c3nc4ccccc4o3)cc2)C1 | active: 19.3 µM | 
COc1ccc2nc3cc(Cl)ccc3c(Nc3cc(CN4CCCC4)c(O)c(CN4CCCC4)c3)c2n1 | inconclusive: 43.2 µM [cytotoxic, single point] | 
COc1cc2nccc(Oc3ccc(NC(=O)Nc4ccc(F)cc4F)c(F)c3)c2cc1OC | active: 1.53 µM | 

Structure (SMILES) | Potency | activity change, negative = cytotoxic
CCCOc1ccc2nc(NC(=O)OC)[nH]c2c1 | active: 61.7 nM and active: 13.7 nM | 
Cc1c(C)n(Cc2ccc(-c3ccccc3C(=O)O)cc2)c2ccc(C(=O)N[C@@H](C)c3ccc([N+](=O)[O-])cc3)cc12 | active: 2.73 µM | 
O=C(NOCC(O)CO)c1cc(Br)c(F)c(F)c1Nc1ccc(I)cc1F (stereo not given) | inconclusive: 0.685 µM [cytotoxic, full curve, poor fit] | 
CCC(=O)NC[C@H](Cc1ccc(OCCc2nc(-c3ccccc3)oc2C)cc1)NC(C)=CC(=O)c1ccc(C(F)(F)F)cc1 | active: 12.2 µM | 
CC1(C)CCC[C@@]2(C)[C@@H]1CC[C@@]1(C)OC(=O)C[C@H]21 | inconclusive: 21.7 µM [cytotoxic, partial curve] | 
COc1nccc(-c2c(-c3ccc(F)cc3)ncn2C2CCC(O)CC2)n1 (stereo not given) |  | inactive: -19.5%
CCOC(=O)O[C@]1(C(=O)OCCl)CC[C@@H]2[C@H]3CCC4=CC(=O)C=C[C@]4(C)[C@@H]3[C@@H](O)C[C@@]21C |  | inactive: 18.3%
COc1nc(-c2ccc3c(c2)OCO3)n(-c2ccc(NC(=O)CSc3ccccc3)cc2)n1 | inconclusive: 3.43 µM [cytotoxic, full curve, poor fit] | 
CC(COc1ccccc1)N(CCCl)Cc1ccccc1 (stereo not given) | inconclusive: 17.4 µM [cytotoxic, partial curve, poor fit] | 
CN[C@@H](C)[C@H]1[C@H](O)C[C@@]2(C)[C@@H]3CC[C@H]4C(C)(C)[C@@H](NC)CC[C@@]45C[C@@]35CC[C@]12C | inconclusive: 30.6 µM [cytotoxic, single point] | 
Cn1c(=O)c(Oc2ccc(F)cc2F)cc2cnc(NC3CCOCC3)nc21 | inconclusive: 0.193 µM [cytotoxic, full curve] | 
Nc1nc2c(ncn2COCCO)c(=O)[nH]1 | inconclusive: 13.7 µM [cytotoxic, partial curve] | 
Cc1noc(NS(=O)(=O)c2ccc(N)cc2)c1C | inactive | 
COc1nccc(-c2c(-c3ccc(F)cc3)ncn2C2CCNCC2)n1 | inconclusive: 0.432 µM [cytotoxic, partial curve, poor fit] | 
O=C(Nc1ccccc1Br)N[C@@H]1CCN(c2ccc(C(F)(F)F)cn2)C1 | inconclusive: 4.85 µM [cytotoxic, full curve] | 
CC(C)C(C)C=CC(C)C1CCC2C3=CC=C4CC(O)CCC4(C)C3CCC21C (stereo not given) |  | inactive: 14.5%
Cc1nccn1CC1CCc2c(c3ccccc3n2C)C1=O (stereo not given) | inconclusive: 13.7 µM [cytotoxic, partial curve, poor fit] and inconclusive: 21.9 µM [cytotoxic, single point] | 
O=C(C=Cc1cccnc1)NCCCCC1CCN(C(=O)c2ccccc2)CC1 | inconclusive: 19.3 µM [cytotoxic, partial curve] | 
CN1CCN(CCOc2cc(OC3CCOCC3)c3c(Nc4c(Cl)ccc5c4OCO5)ncnc3c2)CC1 | active: 17.2 µM | 
CN(C)N=Nc1nc[nH]c1C(N)=O | inconclusive: 0.968 µM [cytotoxic, full curve] | 
